# Test results published in PubChem BioAssay AID1963576 (National Center for Advancing Translational Sciences (NCATS), 2024).
# In all, about 46,000 compounds went through this assay and about 60 (0.1%) were called active. Roughly 3% stayed inconclusive and do not appear here. Calls follow the shape of the dose curve; as a rule, active = well fitted inhibition curve with a large enough effect; inconclusive = small, poorly fitted or top-dose-only effect; inactive = no such curve, though single readings can be large or run the other way. This is one part of the list.
# Experiment: Primary qHTS assay for Inhibitors of ovarian cancer metastasis using an organotypic tumor microenvironment (TME) model. Also: nearly all actives have a fitted effect of over 65% in size.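 As to activity change, negative = inhibition: plate controls were DMSO wells for no effect and tomatine positive control wells for full effect.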
# Conditions: SKOV3ip1-GFP adhesion/invasion on 3D omental model, fluorescence; series mostly up to 45.8 µM; activity change, negative = inhibition: at the top concentration
# Procedure, shortened: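 qHTS, 4-pt dose (0.36-46 umol/L); SKOV3ip1-GFP, 1,200 cells/well, no FBS; primary omental fibroblast/mesothelial co-culture 48 h pre-grown; 2 h RT + 16 h 37 C; PBS wash, 4% PFA; GFP count 488/509 nm.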
SMILES,outcome,"activity change, negative = inhibition"
COc1ccc(-c2nc(CS(=O)CC(=O)NCCc3ccc(Cl)cc3)c(C)o2)cc1OC (stereo not drawn),inactive,
CCN1CCN(c2ncc3c(n2)CCN(Cc2ccccc2C)C3)CC1,,inactive: 1.22%
CCC(=O)N1CCc2cc(CNS(=O)(=O)c3ccc(CC(C)C)cc3)ccc21,,inactive: 5.39%
CN1C(=O)C2(c3ccccc31)N(c1cccc(C(F)(F)F)c1)C(=O)CS2(=O)=O (stereo not drawn),inactive,
Oc1c(C(c2ccc(F)cc2)N2CCN(Cc3ccccc3)CC2)sc2nc(-c3ccco3)nn12 (stereo not drawn),inactive,
CCCCNC(=O)CCCN1C(=O)c2ccccc2Sc2ncccc21,,inactive: 7.79%
CCCS(=O)(=O)N1CC(=O)N(c2ccc(C)c(Cl)c2)C(C)(C(=O)NC2CCCCCC2)C1 (stereo not drawn),,inactive: -10.9%
COc1cc(CN(C(=O)c2ccccc2F)C2CCS(=O)(=O)C2)cc(OC)c1OC (stereo not drawn),,inactive: 12.5%
Cc1ccc2c(CC(=O)Nc3ccc(S(=O)(=O)N4CCCCC4)cc3)coc2c1C,,inactive: -7.05%
Cc1cccc(N2CCN(C(=O)Cn3c(-c4cccs4)cc4ccccc43)CC2)c1C,,inactive: 3.03%
CNC(=O)c1c(NC(=O)/C=C/c2ccccc2)sc2c1CCC2,,inactive: -5.73%
COCCCNC(=O)c1cnc2sc(N3CCCCC3)nn2c1=O,,inactive: 1.88%
Cc1ccc2nc(-c3ccc(NC(=O)COc4ccc(Br)cc4Br)cc3)sc2c1,,inactive: 1.38%
COc1cc(NS(=O)(=O)c2ccc(NC(=O)c3ccc(Cl)cc3Cl)cc2)nc(OC)n1,,inactive: -0.589%
Cc1cccc(-c2nc3nc(C)cc(NC(C)c4ccccc4)n3n2)c1 (stereo not drawn),inactive,
COc1ccc(C(=O)N(Cc2ccco2)Cc2ccc(C)o2)cc1,inactive,
COc1ccc(NC(=O)C2CCCN(S(=O)(=O)c3c(C)[nH]c(=O)[nH]c3=O)C2)c(OC)c1 (stereo not drawn),inactive,
O=C(NCc1ccc(F)cc1)C(=O)NCC(c1ccc2c(c1)OCO2)N1CCOCC1 (stereo not drawn),,inactive: -7.66%
CCOC(=O)c1ccc(NC(=O)CC(=O)Nc2ccc3nc4n(c(=O)c3c2)CCCCC4)cc1,,inactive: 23%
Cc1nn2c(C)c(C(=O)NCCc3ccccc3)cnc2c1-c1ccccc1,,inactive: 8.88%
Cc1ccccc1NC(=O)/C(C#N)=C/c1ccc(Cl)cc1Cl,,inactive: 2.82%
CCc1ccc(NCc2cc3cc4c(cc3n(CC(=O)Nc3ccccc3C)c2=O)OCCO4)cc1,,inactive: 18.2%
CCOc1ccc(NC(=O)Cn2nnc(-c3nc(-c4ccncc4)no3)c2N)cc1,inactive,
Cc1ccc(S(=O)(=O)Cc2nc(-c3ccc(C(=O)NCCCOC(C)C)cc3)oc2C)cc1,,inactive: 11.3%

SMILES,outcome,"activity change, negative = inhibition"
CCCCCCCN(CC)CCCC(O)c1ccc(NS(C)(=O)=O)cc1 (stereo not drawn),,inactive: -2.78%
Cc1ccc2ncc3c(-c4ccc(F)cc4)nn(CC(=O)Nc4ccccc4C)c3c2c1,,inactive: 22.5%
CC(C)c1ccc(N(CC(=O)O)S(=O)(=O)c2ccc3[nH]c(=O)c(=O)[nH]c3c2)cc1,,inactive: -10.4%
COc1ccc(Br)cc1CNC(=O)CN1C(=O)c2cccnc2Oc2ccc(C)cc21,,inactive: -7.33%
Cc1ccc2oc(C(=O)Nc3ccc(S(=O)(=O)Nc4nccc(C)n4)cc3)cc(=O)c2c1,,inactive: -9.82%
CCCOc1ccc(C(=O)Nc2cc3c(cc2N2CCCCC2)n(C)c(=O)n3C)cc1,inactive,
COc1ccc(-c2nc3sc(CCNS(=O)(=O)c4ccccc4)c(C)n3n2)cc1,,inactive: -9.36%
O=C(NCC1CCN(Cc2ccccc2F)CC1)Nc1ccc(F)c(Cl)c1,,inactive: -26.8%
Cc1ccc2[nH]c3c(=O)n(CC(=O)Nc4ccc(Br)cc4C)ncc3c2c1,,inactive: 0.796%
CSc1ncc2c(n1)-c1ccccc1N(Cc1ccccc1)S2(=O)=O,,inactive: -3.24%
CCOc1ccc(C(=O)Nc2cc3c(cc2N2CCCC2)n(C)c(=O)c(=O)n3C)cc1OCC,,inactive: 0.0976%
CSc1ccc(CCNC(=O)CCCn2c(=O)c3cccn3c3ccccc32)cc1,inactive,
Fc1ccc(Nc2nc3ccccc3n3cnnc23)c(F)c1,,inactive: 3.18%
COc1ccccc1CNC(=O)COCc1cc(-c2cccs2)on1,inactive,
Cc1ccc(N(CC(C)C)S(=O)(=O)c2nnc(NC(=O)C(C)C)s2)cc1,,inactive: -14.5%
Cc1nn(C(C)C(=O)Nc2ccccc2C(F)(F)F)c(=O)c2c1sc1ccccc12 (stereo not drawn),,inactive: 14.1%
Cc1nc2nc(CNC(=O)c3cccc(F)c3)nn2c(C)c1CCC(=O)Nc1cccc(Cl)c1,,inactive: 5.82%
CC(C)(C)c1ccc(C(=O)Nc2c(C(=O)c3ccc(F)cc3)oc3ccccc23)cc1,inactive,
COc1ccc(-n2ccnc(NCCc3ccccc3)c2=O)cc1OC,,inactive: -1.39%
O=C(c1ccc(F)cc1)n1nc(-c2cccnc2)nc1NCc1ccccc1,,inactive: 7.88%
CCSc1nc2ccccc2c(OCc2ccccc2Cl)c1C(=O)OC,,inactive: 1.91%
COc1ccc(NC(=O)c2nc(-c3ccc(C)cc3)n3c2CCCCC3)cc1,,inactive: -16.6%
COc1cccc(C(=O)N(Cc2nc(-c3ccc(Cl)cc3)no2)C(C)C)c1OC,inactive,
COc1ccc(Oc2nc3c(c(=O)n(Cc4ccc(Br)cc4)c(=O)n3C)n2C)cc1,,inactive: 3.64%
